Measurements from PubChem BioAssay AID686978 (National Center for Advancing Translational Sciences (NCATS), 2013).
Values joined by “and” are separate entries in the source; they are usually repeats but may differ in a detail not shown here. Identical values can stand only once. In all, about 420,000 compounds went through this assay and about 64,000 (15%) were called active. The shares of active, inactive and inconclusive entries below differ from those in the screen. Calls follow the shape of the dose curve; as a rule, active = well fitted inhibition curve with a large enough effect; inconclusive = small, poorly fitted or top-dose-only effect; inactive = flat fitted curve, though single readings scatter. No potency is given beside an inconclusive call; the fits are too rough.

experiment: qHTS for Inhibitors of human tyrosyl-DNA phosphodiesterase 1 (TDP1): qHTS in cells in absence of CPT; conditions: DT40 Tdp1-/- hTDP1 cells, no CPT, ATP luminescence, 48 h; activity change, negative = growth inhibition: at 46.2 µM (top of the series); also: nearly all actives have a fitted effect of over 55% in size
Outline: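 Stably hTDP1-transfected Tdp1-null chicken DT40 cells were treated with library compounds minus camptothecin and grown for at least 48 hr at 37 °C, after which cellular ATP was quantified by luminescence.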
% is scaled to controls: 0 for no effect and ±100 for the full control effect; potency is read from the fitted curve at half-maximal effect; tags tell the direction and shape of the fitted curve.

| SMILES | Potency | activity change, negative = growth inhibition |
| --- | --- | --- |
| CC(=O)N1N=C(c2ccncc2)OC12CCCC2 | inactive |  |
| COc1cc(CNc2ncnc3c2ncn3[C@H]2CN(CCN3CCOCC3)C[C@@H](CO)O2)cc(OC)c1OC | inactive |  |
| CC(C)CC(=O)N1CCN(S(=O)(=O)c2ccc(C3CCCCC3)cc2)CC1 | active: 11.6 µM |  |
| COc1ccc(Nc2oc(/C=C/c3cc(OC)c(OC)c(OC)c3)nc2C#N)cc1 | inconclusive [inhibitor, single point] |  |
| Cc1ccc2nc(-c3ccccc3)cc(C(=O)N3CCc4ccccc4C3)c2c1 | inconclusive [inhibitor, single point] |  |
| COc1cccc(CNC(=O)Cn2c(=O)nc(-c3ccccc3F)c3cc(Cl)ccc32)c1 | inactive |  |
| CCOC(=O)c1ccccc1NC(=O)CSc1cn(CC(=O)N2CCCCCC2)c2ccccc12 | inconclusive [inhibitor, single point] |  |
| Cc1noc(C)c1-c1ccc2ncnc(N3CCN(C)CC3)c2c1 | inconclusive [inhibitor, single point] |  |
| O=C(Nc1ccccc1Cl)c1cc(C2CCCN(S(=O)(=O)c3cccs3)C2)on1 (centres undefined) | inactive |  |
| COc1ccc(-c2nnc(SCC(=O)N3c4ccccc4Sc4ccccc43)o2)cc1 | inconclusive [inhibitor, single point] |  |
| COc1ccc(N/C(N)=N/c2nc(C)cc(C)n2)cc1 | inconclusive [inhibitor, single point] |  |
| Cc1oc2ncnc(N3CCCCC3)c2c1C(=O)N1CCN(c2ccc(Cl)cc2)CC1 | inconclusive [inhibitor, full curve, poor fit] |  |
| CN(C)c1ccc(-c2cncnc2Nc2ccccc2)cc1 | inconclusive [inhibitor, single point] |  |
| COc1ccc(Nc2nc(N)c3ccccc3n2)c(OC)c1 | inactive |  |
| O=C(O)c1ccc(Cl)c(S(=O)(=O)Nc2ccc(OCc3ccccc3)cc2)c1 | inconclusive [inhibitor, single point] |  |
| Cc1c(COc2ccc3ccccc3c2)nnn1CC(=O)NS(=O)(=O)c1ccccc1C(F)(F)F | inactive |  |
| CCN(CC)c1ccc(NC(=O)c2ccc(Cl)nc2)cc1 | active: 2.59 µM |  |
| CCCOc1ccc(CC(=O)N/N=C\c2ccc(F)cc2)cc1 | inconclusive [inhibitor, single point] |  |
| Cc1ccc(S(=O)(=O)NCc2cccnc2)cc1C(=O)NC1CCCCC1 | inactive |  |
| O=C(COC(=O)C1(c2ccccc2)CCCC1)N1CCNC1=O | inconclusive [inhibitor, single point] |  |
| CN(C)c1ccc(NC(=O)c2ccc([N+](=O)[O-])cc2Cl)cc1 | inactive |  |
| CC1(C(=O)NS(=O)(=O)c2ccccc2Cl)CCN1C(=O)CC1CC1 (centres undefined) | inactive |  |
| COCCNc1nc(Nc2ccc(C)cc2C)c2sc(-c3ccccc3)cc2n1 | active: 18.4 µM |  |

| SMILES | Potency | activity change, negative = growth inhibition |
| --- | --- | --- |
| OCC1OC(n2cnc3c(NCc4ccco4)ncnc32)C(O)C1O (centres undefined) | active: 5.17 µM and active: 1 µM and active: 2.06 µM |  |
| N#CCC(=O)Nc1ncn(Cc2ccccc2Cl)n1 | inactive |  |
| CCc1ccc(OC(C)C(=O)N(Cc2ccccc2)C2CCS(=O)(=O)C2)cc1 (centres undefined) | inconclusive [inhibitor, single point] |  |
| CC(C)(C)c1ccc(C(=O)Nc2ccc(NC(=O)c3ccco3)cc2)cc1 | inconclusive [inhibitor, partial curve] |  |
| COc1ccc(NC(=O)Cc2ccc(C)cc2)c([N+](=O)[O-])c1 | inconclusive [inhibitor, single point] |  |
| CCOc1ccc(CN2CCC(C(=O)Nc3cccc(-c4ccn[nH]4)c3)CC2)cc1Cl | inconclusive [inhibitor, single point] |  |
| O=C(O)c1ccccc1CSc1nc2ccccc2s1 | inactive |  |
| COc1ccccc1Oc1ccc(N/C=C/C(=O)c2ccco2)cc1 | active: 18.4 µM |  |
| OCCN1CCN(c2ncnc3c2ncn3[C@H]2CN(Cc3ccncc3)C[C@@H](CO)O2)CC1 | inactive |  |
| COCCn1c(SCC(=O)N2CCC(C)CC2)nc2c([nH]c3ccccc32)c1=O | inconclusive [inhibitor, single point] |  |
| CN1CCc2c(n(CC(O)CNCc3ccccc3)c3ccccc23)C1=O (centres undefined) | active: 8.2 µM |  |
| COc1cccc(OCC(O)CN2CCN(CCN3C(=O)c4cccc5cccc(c45)C3=O)CC2)c1 (centres undefined) | active: 18.4 µM |  |
| COc1ccccc1Nc1nc(N)nc(-c2oc3ccccc3c2C)n1 |  | inconclusive: -34.7% [inhibitor] |
| Cc1ccc(C(=O)O/N=C(\N)c2ccccn2)c(Cl)c1 | inconclusive [inhibitor, single point] |  |
| COc1ccc(-c2nc3c4ccccc4n(CC(=O)N4CCN(c5ccccc5F)CC4)c(=O)n3n2)cc1 | inconclusive [inhibitor, full curve, poor fit] |  |
| COc1ccccc1CNC(=O)c1ccc(N2CCOCC2)c([N+](=O)[O-])c1 | inactive |  |
| CC(SC1=NS(=O)(=O)c2ccccc21)C(=O)O (centres undefined) | inconclusive [inhibitor, single point] |  |
| O=[N+]([O-])c1c(Nc2cccc(O)c2)cc(Cl)c2nonc12 | active: 1.84 µM |  |
| Cc1ccc(NC(=O)CSc2nnc(NC(=O)NC3CCCCC3)s2)cc1 | inconclusive [inhibitor, single point] |  |
| O=C(NCCc1ccc(Cl)cc1)C1CCN(S(=O)(=O)N2CCCC2)CC1 | inconclusive [inhibitor, single point] |  |
| O=[N+]([O-])c1ccc(Cl)c(CN2CCN(c3ncc(Cc4ccccc4)cn3)CC2)c1 | active: 16.4 µM |  |
| N#CCSc1nc2ccccc2c(=O)n1C1CCCCC1 | inconclusive [inhibitor, partial curve] |  |
| Cc1ccc(C(=O)NC(=S)NCc2cccnc2)c(C)c1 | inconclusive [inhibitor, single point] |  |

| SMILES | Potency | activity change, negative = growth inhibition |
| --- | --- | --- |
| COc1ccc(CCNC(=O)C2(C)CCC(=O)N2Cc2ccc(C)cc2)cc1OC (centres undefined) | inactive |  |
| CN(C)c1ccc(C2=NOC(CN3C(=O)c4ccccc4S3(=O)=O)C2)cc1 (centres undefined) | inconclusive [inhibitor, partial curve] |  |
| COc1ccc(C(=O)NCCNc2ccc([N+](=O)[O-])cc2)cc1 | inconclusive [inhibitor, single point] |  |
| Cc1ccc(C)c(N2CCN(CC(=O)Nc3ccc([N+](=O)[O-])cc3C(=O)Nc3ccccc3F)CC2)c1 | inconclusive [inhibitor, single point] |  |
| CC(C)(C)OC(=O)N(CCc1ccccc1)Cc1ccc(OCc2cccc(NC(=O)C3CCCC3)c2)cc1 | active: 6.51 µM |  |
| COCC(=O)N1CCC2(CC1)CCN(c1ccncc1)CC2 | inconclusive [inhibitor, single point] |  |
| Cc1ccc(C(=O)N/C(N)=N/c2nc3ccccc3o2)cc1 | inconclusive [inhibitor, partial curve] |  |
| Cc1cc(C)c(S(=O)(=O)Nc2cc(C)on2)c(C)c1 | inactive |  |
| NC(=O)/C(N=Nc1ccccc1)=N/Nc1ccccc1 | inconclusive [inhibitor, partial curve] |  |
| C=C1CC2(OC1=O)c1ccccc1CCc1ccccc12 | active: 2.91 µM |  |
| CN1CCN(c2ncc3nc(-c4cc(F)cc(F)c4)c(=O)n(CCC#N)c3n2)CC1 | inconclusive [inhibitor, single point] |  |
| CCC(C)NC(=O)C1(O)c2cc(Br)ccc2NC(=O)N1c1cccc(OC)c1 (centres undefined) | inactive |  |
| CC(C)[C@H](NC(=O)OCc1ccccc1)C(=O)OCC(=O)N1CCN(c2ccc(F)cc2)CC1 | inconclusive [inhibitor, single point] |  |
| Cc1ccc([C@@H]2C[C@H]3[C@@H](CN2S(=O)(=O)c2ccc(Cl)cc2)C(=O)C[C@@H](c2cccc(Cl)c2)N3S(=O)(=O)c2ccc(C)cc2)cc1 | inconclusive [inhibitor, single point] |  |
| CCc1ccc(C(=O)Nc2ccc3nc(C)ccc3c2)cc1 | inconclusive [inhibitor, single point] |  |
| Cc1cc2cc(CNC(=S)Nc3ccc(OC(F)F)cc3)ccc2[nH]1 | inconclusive [inhibitor, single point] |  |
| CCCCN(C=O)c1c(CC)nc2ccc(C(=O)NCCc3c[nH]c4ccccc34)cn12 | inconclusive [inhibitor, single point] |  |
| COc1ccc(-c2cc(C(=O)N3CCN(Cc4ccc5c(c4)OCO5)CC3)on2)cc1OC | inconclusive [inhibitor, single point] |  |
| O=C(NCc1ccccn1)c1cc2n(n1)C(C(F)(F)F)CC(c1ccco1)N2 (centres undefined) |  | inconclusive: -38.1% [inhibitor] |
| CN1CCN(c2ccccc2NC(=O)c2cc3c(s2)-c2ccccc2OC3)CC1 | inconclusive [inhibitor, partial curve, poor fit] |  |
| O=C(CCl)Nc1ccccc1Sc1ccccc1 | inconclusive [inhibitor, single point] |  |
| CCCC1=C/C(=C/c2ccc(-c3ccccc3OC)o2)C(=O)O1 | inconclusive [inhibitor, partial curve, poor fit] |  |
| Cc1ccc(NC(=O)c2ncn(CCCNCc3ccccc3)n2)cc1C | inconclusive [inhibitor, single point] |  |
